For 81 molecules, GI50 and TGI results are on record in PubChem BioAssay (NCI).

SMILES strings stand for the structures. “And” between values parts separate entries of the source, which are not always exact repeats. Equal entries are not always repeated.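 A five-concentration, 48-hour dose response in 96-well plates underlies each endpoint, interpolated linearly between surrounding concentrations. The concentration for 50% growth inhibition is given as GI50. The concentration for full growth arrest is given as TGI.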 Some results are limits rather than exact numbers.

In this assay the test system is NCI-H322M lung. Description: growth of human tumour cells (NCI), 48 h.
`CCOC(=O)C1=C(C)NC2SC(=O)/C(=C\c3cccc(Cl)c3)N2C1c1ccccc1` (stereo unspecified): the GI50 was over 100 µM and the TGI is over 100 µM. `COc1cc(-c2nc(N)c(C#N)c3c2CCS(=O)(=O)c2ccc(C)cc2-3)cc(OC)c1OC` returned a TGI of over 100 µM. On to `NC1=NC(c2ccc(Cl)cc2)=CC(c2cccc(Cl)c2)S1` (stereo unspecified), for which the TGI was over 100 µM.

Regarding `Nc1nc2ccc(CNc3ccc(C(=O)NC(CC(=O)O)C(=O)O)cc3)cc2c(=O)[nH]1` (stereo unspecified), the GI50 is 1.85 µM and the TGI is over 100 µM.

Take `COc1ccc2nc3cc([N+](=O)[O-])ccc3c(NCCO)c2c1`: the GI50 was 1.86 µM and the TGI was found to be 10.1 µM. On to `CCOC(=O)/C(=C\c1c[nH]c2ccccc12)P(=O)(OCC)OCC`, for which the TGI is over 100 µM. In the case of `Cn1cc(-c2csc(-c3ccccc3)n2)c2cccnc21`, the GI50 is 15.1 µM and the TGI is 36.7 µM. `O=C(O)CN1C(=O)OC(c2ccccc2)C1=O` (stereo unspecified) showed a TGI of over 100 µM. The same measure, in the same setting: the result for `C/C(=C\[Si](C)(C)c1ccco1)C(C)(O)[C@H](C)O` (stereo partly specified) reads over 100 µM; that for `NC(CCc1nc(-c2cccc([N+](=O)[O-])c2)cs1)C(=O)O` (stereo unspecified), over 100 µM. On the same count and under the same terms, the result for `Cc1cc2c(cc1Cl)SC(NNCCO)=NS2(=O)=O` reads over 100 µM; that for `CC(C)=CCC/C(C)=C/Cc1c2c(c3oc(-c4ccc(O)c(O)c4)c(O)c(=O)c3c1O)C=CC(C)(C)O2`, 5.77 µM. Still for that read-out and setting: the result for `CCOC(=O)c1ccc(N=C2Sc3nc4ccccc4n3C2=Nc2ccc(C(=O)OCC)cc2)cc1` reads 70.6 µM.

For `Cc1nn(CNc2ccc(F)c(Cl)c2)c(=S)n1/N=C/c1ccc(-c2ccc(Cl)cc2Cl)o1`, the TGI was 40.6 µM. Still for that read-out and setting: the result for `CCCCCc1cc(/C=C2/N=C(c3ccc[nH]3)C=C2OC)[nH]c1C` reads 1.29 µM. Turning to `CC[C@]12C=CCN3CC[C@]4(C(=C(C(=O)OC)C1)Nc1cc5c(cc14)[C@@H]1[C@H](O5)[C@@H](O)[C@@]4(CC)CC(C(=O)OC)=C5Nc6ccccc6[C@@]56CCN1[C@@H]46)[C@@H]32`, the GI50 was 0.755 µM and 0.933 µM; the TGI is 25 µM and 59.6 µM. The molecule `CC(=O)OC1C(O)C(C)OC(OC2C(OC(=O)C3CCC4C(C3)OC3(CC(OC(=O)/C=C/c5ccccc5)C(C)CO3)C43CO3)OC(C)C(O)C2OC(C)=O)C1O` (stereo unspecified) had a TGI of 0.176 µM. On the same count and under the same terms, the result for `CC(=O)OCc1nnn2c1C(OC(C)=O)CC2` (stereo unspecified) reads over 100 µM; that for `COC1(OC)CCN(Cc2ccccc2)C1=O`, over 78.4 µM. As for `O=C(O)c1ccc(CSc2nc3ccccc3[nH]2)cc1`, the GI50 was over 100 µM and the TGI was over 100 µM. `CC(=O)Oc1ccc2c(c1)[nH]c1c3ccc(OC(C)=O)cc3oc(=O)c21` displayed a TGI of 72 µM. Still for that read-out and setting: the result for `COC(=O)C(=O)C(C(=O)OC)C(=O)C(=O)Nc1cc(Cl)c(C)cc1S(=O)(=O)O` (stereo unspecified) reads over 100 µM. With `CC(C)n1cc(-c2ccc3c(c2)N(C)CC3)c2c(NS(=O)(=O)c3ccn(C)n3)ccnc21`, the GI50 was 95.9 µM and the TGI is over 100 µM. On to `O=C1c2ccccc2C(=O)c2c1oc1cc(O)c(Cl)cc21`, for which the TGI stood at 23.6 µM. Consider `COC(=O)C1C(C(=O)O)C2(c3ccccc3)C(=O)C1(c1ccccc1)C(c1ccc(OC)cc1)=C2c1ccc(OC)cc1` (stereo unspecified), for which the GI50 is 30.9 µM and the TGI was 81.4 µM. For the molecule `CC(=O)N1C(c2[nH]c3ccccc3c2Cc2ccccc2)CCN1c1ccccc1` (stereo unspecified), the TGI is over 10 µM.

For the molecule `O=S(=O)(NCCNc1nccc(-c2c(-c3ccc(F)cc3)nc3sccn23)n1)c1ccc(O)cc1`, the GI50 is 5.47 µM and the TGI stood at 51.8 µM.

Take `c1cc[n+](Cc2c3ccccc3cc3c2ccc2ccccc23)cc1`: the GI50 is 4.69 µM and the TGI was 19 µM. As for `CC1(C)N=C(C(N)=O)c2ncn(Cc3ccccc3)c2N1`, the TGI is over 100 µM.

Consider `COC(=O)CN1Cc2cc(C)cc(c2O)CN(CC(=O)OC)Cc2cc(C)cc(c2O)CN(CC(=O)OC)Cc2cc(C)cc(c2O)CN(CC(=O)OC)Cc2cc(C)cc(c2O)C1`, for which the GI50 was 28.8 µM; the TGI was 50 µM and > 100 µM.

As to `O=C(Cc1cc(O)ccc1O)NO`, the GI50 was over 100 µM and the TGI is over 100 µM. On to `CC(=O)Oc1ccc2c(=O)c(C(C)=O)coc2c1`, for which the TGI was over 100 µM.

In the case of `Cc1cn(C2CC(O)C(Cn3nncc3Cn3cnc4c(N)ncnc43)O2)c(=O)[nH]c1=O` (stereo unspecified), the TGI is over 100 µM.

On to `COc1cc(/C=C2\CC3C4CCC5=CC(=O)CC[C@]5(C)C4CC[C@]3(C)C2=O)ccc1OCCN1CCCC1` (stereo partly specified), for which the GI50 is 0.633 µM and the TGI came out at 2.38 µM. In turn, `Cc1cc(NS(=O)(=O)c2ccc(NO)cc2)no1` showed a TGI of over 100 µM.

For the molecule `Cc1cc(S(=O)(=O)Nc2nc3ccccc3c(=O)n2Cc2ccco2)c(S)cc1Cl`, the GI50 was 42.3 µM and the TGI is over 100 µM.

As to `C/C=C1\Oc2ccc(OC)cc2S1(=O)=O`, the TGI was over 100 µM. Still for that read-out and setting: the result for `COc1cc(C2C(C(=O)NCc3ccccc3)=C(C)NC(C)=C2C(=O)NCc2ccccc2)ccc1O` reads over 100 µM. The same measure, in the same setting: the result for `NNC(=O)/C(NC(=O)c1ccccc1)=C(\N)c1cccc([N+](=O)[O-])c1` reads over 100 µM. Regarding `COc1ccc(N=Nc2ccc(O)c(=O)cc2)cc1`, the GI50 is 3.18 µM and the TGI was over 100 µM. In the case of `CCOC(=O)N1c2ccccc2N(C(=O)OCC)C1CC(=O)/C=C/c1ccccc1`, the TGI worked out at 7.93 µM.

As to `C[C@@H](NC1CCCC[C@@H]1O)c1ccccc1` (stereo partly specified), the TGI is over 100 µM.

As to `OC1(C(Sc2ccccc2)Sc2ccccc2)CCCCCC1`, the TGI was over 100 µM. As for `Nc1c(C(=O)Nc2cccc(Cl)c2)sc2nc3c(cc12)C(O)CCC3` (stereo unspecified), the GI50 is 0.52 µM and the TGI turned out to be 65.6 µM. In the case of `O=C1/C(=C/c2ccc(Cl)cc2)CN(Cc2cn(CCCNc3ccnc4cc(Cl)ccc34)nn2)C/C1=C\c1ccc(Cl)cc1`, the GI50 was 1.34 µM and the TGI was found to be 2.83 µM.

For `CC1(C=O)CC(CCc2ccccc2)NC1Cc1ccc(O)cc1` (stereo unspecified), the TGI turned out to be 32.5 µM. For `COc1ccccc1CNCCCN1C(=O)c2ccc3c4c(ccc(c24)C1=O)C(=O)N(CCCNCCCCNCCCN)C3=O`, the GI50 is 1.2 µM and the TGI turned out to be 6.63 µM.

As to `Cc1c(-c2coc(-c3ccc([N+](=O)[O-])cc3)n2)c(=O)n(-c2ccccc2)n1C`, the TGI was over 100 µM. The same measure, in the same setting: the result for `Nc1[nH]c(=O)nc2c1cnn2COCCO` reads over 100 µM; that for `Nc1ncnc2c1ccn2CC#CCO`, over 100 µM. Take `Cc1cn(CC(=S)NCCc2c[nH]c3ccccc23)c(=O)[nH]c1=O`: the TGI was over 100 µM. Still for that read-out and setting: the result for `Cc1n[nH]c(=O)n1/N=C/c1ccco1` reads over 100 µM.

As for `COc1cc(/C=C2\CCC/C(=C\c3cc(CN4CCCC4)c(O)c(OC)c3)C2=O)cc(CN2CCCC2)c1O`, the GI50 is 4.36 µM and the TGI was 15.9 µM. Taken in the same sequence, the figures for `COc1ccc(-c2nc3sccn3c2-c2ccnc(NCCNS(=O)(=O)c3ccc(C(F)(F)F)cc3)n2)cc1` were 5.81 µM and over 100 µM. As for `C#CN1C(=O)c2c(c(-c3ccccc3)c(-c3ccc(Oc4ccc(-c5c(-c6ccccc6)c6c(c(-c7ccccc7)c5-c5ccccc5)C(=O)N(C#C)C6=O)cc4)cc3)c(-c3ccccc3)c2-c2ccccc2)C1=O`, the TGI is over 100 µM.

For `CCOC(=O)C(C(=O)OCC)=C1C=C(c2ccccc2)c2ccccc21`, the TGI is over 100 µM.

On to `COc1cc2c(cc1NC(=O)c1ccccc1)c1c(n2S(=O)(=O)c2ccccc2)CCN(S(=O)(=O)c2ccccc2)C1`, for which the TGI was over 100 µM.

Take `CCCCCCCCCCCCC(O)C1CCC(C(O)CCCCC(O)CCCCCC2CC(CC(C)=O)C(=O)O2)O1` (stereo unspecified): the GI50 was 3.63 µM and the TGI was 22.6 µM. Consider `COc1ccc2c(O)c1-c1c(OC)ccc(c1O)SSc1ccc(OC)c(c1O)-c1c(OC)ccc(c1O)SS2`, for which the TGI was over 100 µM. On the same count and under the same terms, the result for `O=C(c1ccccc1)c1ccc(N2C(=O)/C(=C/c3cccc(Oc4ccccc4)c3)N=C2c2ccccc2)c(N2C(=O)/C(=C/c3cccc(Oc4ccccc4)c3)N=C2c2ccccc2)c1` reads over 100 µM; that for `COc1ccc(/C=C2/SC(=Nc3ccccc3)N(NC(=O)Cc3ccccc3)C2=O)cc1`, over 100 µM.

The molecule `C=C1N(C)c2ccc(S(=O)(=O)c3ccc4c(c3)C(C)(C)C(=C)N4C)cc2C1(C)C` gave a TGI of over 100 µM. Still for that read-out and setting: the result for `CNC(=O)O/N=C1\N(C)CN(c2ccccc2)C12CCN(CCCC(=O)c1ccc(F)cc1)CC2` reads over 100 µM. As to `c1ccc(-c2cc3nc4ccccc4nc3cc(-c3ccccc3)[nH][nH]2)cc1`, the TGI was over 100 µM. Same read-out and setting: the result for `C=C(C)COc1ccc2c(c1)CCC1C2CCC2(C)C(=O)/C(=N/O)CC12` (stereo unspecified) reads 21 µM; that for `OC1CC(O)O[C@H](c2ccccc2)C1` (stereo partly specified), over 100 µM; that for `CN(C)CCC(=O)[C@@]1(O)CC[C@H]2[C@@H]3CC=C4C[C@@H](O)CC[C@]4(C)[C@H]3CC[C@@]21C`, 79 µM. Turning to `N#CC1=C(N)N=C(N2CCOCC2)C(C#N)C12Nc1ccccc1S2` (stereo unspecified), the GI50 is 23.1 µM and the TGI came to 61.3 µM. `O=C(O)C1=Cc2cccc3cccc(c23)C1=O`: the TGI was over 100 µM. Molecule `c1ccc2c(c1)CCN1CCc3ccccc3C1C2` (stereo unspecified) had a TGI of over 100 µM. Same read-out and setting: the result for `COc1ccc(/C(C)=C2\CCCN(Cc3ccccc3)C2)cc1` reads over 100 µM.

As for `Clc1nc(Cl)c2ncn(-c3ccccc3)c2n1`, the GI50 was 3.22 µM and the TGI was 12.8 µM. For the molecule `CCC1(c2ccc(OC)c(OC)c2)CCN(S(=O)(=O)c2ccc(C)cc2)C1` (stereo unspecified), the TGI is over 100 µM. With `CC(=O)Oc1ccc(C2OC(c3ccc4ccccc4c3OC(C)=O)=NN2C(C)=O)c(OC(C)=O)c1` (stereo unspecified), the GI50 is 0.295 µM and the TGI stood at 28.4 µM. As to `CSC12c3cc(C)n(-c4ccc(I)cc4)c3CC(C)(C)CN1C(=O)C2Oc1ccccc1` (stereo unspecified), the TGI is over 100 µM. For `O=C1NC(c2ccc3ccccc3c2)Nc2ccccc21` (stereo unspecified), the TGI was over 100 µM. Still for that read-out and setting: the result for `OC1C2CCCCN2C[C@@H](O)[C@H]1O` (stereo partly specified) reads over 100 µM. For the molecule `CCN1CCN(Cc2ccc(Nc3ncc(F)c(-c4cc(F)c5nc(C)n(C(C)C)c5c4)n3)nc2)CC1`, the GI50 was 0.398 µM and the TGI turned out to be 10.6 µM. In turn, `COc1nc(=O)[nH]c2c1C(c1ccc([N+](=O)[O-])cc1)c1c(OC)nc(=O)[nH]c1O2` registered a TGI of over 100 µM. In the case of `O=c1cccccc1[O-].O=c1cccccc1[O-].O=c1cccccc1[O-].[Nd+3]`, the TGI is over 100 µM. Still for that read-out and setting: the result for `CCOC(=O)/C(C1=NCCN1C)=C(\O)c1ccccc1` reads over 100 µM.
